Consider 40 compounds from the antibiotic and cytotoxicity screens of Wong et al. (2023).

The structures appear in SMILES notation. The list shows a part of the results.

In the assay the test system is S. aureus RN4220. In words: growth inhibition call (relative growth <= 0.2). As to conditions: 50 µM.
`CN(C)CCCNC(=O)C[C@@H]1C=C[C@H](NS(=O)(=O)c2ccccc2)[C@@H](CO)O1`: the growth inhibition call is “inactive”.
Then `C[C@H]1CN([C@@H](C)CO)C(=O)c2cccc(NC(=O)C3CCOCC3)c2O[C@H]1CN(C)Cc1ccncc1`, with “inactive”.
Consider `C[C@H](CO)N1C[C@H](C)[C@@H](CN(C)C(=O)Cc2ccccc2)OCCCC[C@H](C)Oc2ccc(NC(=O)Nc3ccc(F)cc3)cc2C1=O`, for which the growth inhibition call is “inactive”.
In the case of `C[C@@H]1CCCCO[C@@H](CN(C)Cc2ccc3c(c2)OCO3)[C@@H](C)CN([C@H](C)CO)C(=O)c2cc(NC(=O)Nc3ccccc3)ccc2O1`, the growth inhibition call was “inactive”.
Then `C[C@H]1CN([C@@H](C)CO)C(=O)c2cc(NC(=O)CCN3CCOCC3)ccc2O[C@@H]1CN(C)C(=O)Nc1ccc2c(c1)OCO2`, with “inactive”.
For `COc1ccc(S(=O)(=O)N(C)C[C@@H]2Oc3ccc(NC(=O)Cc4ccccc4)cc3CC(=O)N([C@H](C)CO)C[C@H]2C)cc1`, the growth inhibition call was “inactive”.
To `COC(=O)[C@H](Cc1ccccc1)N1C[C@](C)(OC(C)C)O[C@@H](CCn2cc(COc3ccccc3/C=C(C)/C=C/C(=O)NO)nn2)[C@@H]1/C=C/C1CC1` belongs “inactive”; to `C[C@@H]1CN([C@H](C)CO)C(=O)c2cc(C#CC3CCCC3)cnc2O[C@H]1CN(C)S(=O)(=O)c1cccc(F)c1`, “inactive”; to `C[C@@H]1CCCCO[C@@H](CN(C)Cc2ccc(C(F)(F)F)cc2)[C@@H](C)CN([C@@H](C)CO)C(=O)c2cc(NC(=O)C3CCCCC3)ccc2O1`, “inactive”.
In the case of `N[C@H]1CC[C@@H](NC(=O)[C@H]2CCc3ccccc32)CC1`, the growth inhibition call was “inactive”.
To `COc1ccc(S(=O)(=O)N(C)C[C@H]2Oc3ccc(NC(=O)Cc4ccccc4)cc3CC(=O)N([C@@H](C)CO)C[C@@H]2C)cc1` belongs “inactive”; to `C[C@H]1CN([C@@H](C)CO)C(=O)c2cc(NS(=O)(=O)c3ccc(F)cc3)ccc2O[C@H]1CN(C)Cc1ccc(-c2ccccc2)cc1`, “inactive”; to `C[C@H](CO)N1C[C@H](C)[C@@H](CN(C)S(=O)(=O)c2cccs2)Oc2ccc(NS(=O)(=O)c3ccc(F)cc3)cc2CC1=O`, “inactive”.
Then `C[C@H]1CCCCO[C@H](CN(C)C(=O)c2ccncc2)[C@@H](C)CN([C@@H](C)CO)C(=O)c2cc(NS(=O)(=O)c3ccc(Cl)cc3)ccc2O1`, with “inactive”; and `Cc1ccc(S(=O)(=O)Nc2ccc3c(c2)C(=O)N(C)[C@H]2CC[C@@H](CC(=O)NCCc4ccncc4)O[C@@H]2CO3)cc1`, with “inactive”.
`Cc1noc(C)c1S(=O)(=O)Nc1ccc2c(c1)CC(=O)N([C@H](C)CO)C[C@@H](C)[C@@H](CN(C)S(=O)(=O)c1ccc(Cl)cc1)O2`: the growth inhibition call is “inactive”.
To `CC(C)C[C@@H]1NC(=O)[C@@H]2C[C@H](C(=O)NCCCCCNC(=O)CS)[C@H](c3cccc(OCCO)c3)N2C1=O` belongs “inactive”; to `C[C@@H]1CN([C@H](C)CO)C(=O)c2cc(C#CC(C)(C)O)cnc2O[C@H]1CN(C)Cc1cccc(C(=O)O)c1`, “inactive”.
To `CO[C@@H]1CN(C)C(=O)c2cc(NS(=O)(=O)CC(F)(F)F)ccc2OC[C@@H](C)N(Cc2ccccn2)C[C@@H]1C` belongs “inactive”; to `COc1ccc(S(=O)(=O)N(C)C[C@@H]2Oc3ccc(NC(=O)Nc4cccc5ccccc45)cc3C(=O)N([C@@H](C)CO)C[C@H]2C)cc1`, “inactive”; to `CCCN(C)C[C@H]1OCCCC[C@@H](C)Oc2ccc(NC(=O)Nc3ccc(F)cc3)cc2C(=O)N([C@H](C)CO)C[C@@H]1C`, “inactive”.
Then `C[C@@H]1CN([C@@H](C)CO)C(=O)c2cc(Br)cnc2O[C@H]1CN(C)Cc1ccccc1C(=O)O`, with “inactive”; and `C=CCN1C(=O)[C@@]2(O[C@H](CCOC(=O)NCCCCCC(=O)NO)[C@@H]([Si](C)(C)c3ccc(OC)cc3)[C@@H]2C)c2cc(I)ccc21`, with “inactive”; and `C[C@H](CO)N1C[C@H](C)[C@@H](CN(C)S(=O)(=O)c2ccc(F)cc2)Oc2ccc(NS(=O)(=O)c3cccs3)cc2CC1=O`, with “inactive”.
For the compound `CCn1c(=S)ccc2ccccc21`, the growth inhibition call was “inactive”.
Then `OCCN1CNC(=S)NC1`, with “inactive”; and `Cc1ccc(S(=O)(=O)N2C[C@H](O)COC[C@@H]3O[C@H](CC(=O)NCCCN(C)C)CC[C@H]32)cc1`, with “inactive”.
As for `C=CC(C)(O)CCC=C(C)C` (stereo not given), the growth inhibition call was “inactive”.
To `Nc1nc2c(ncn2COCCO)c(=O)[nH]1` belongs “inactive”.
As for `CCS(=O)(=O)N1CC[C@]2(CC1)CN(Cc1ccc3c(c1)OCO3)[C@@H](CO)c1[nH]c3cc(ccc3c12)OC`, the growth inhibition call was “inactive”.
Then `CC(=O)NCC(=O)N1Cc2nccn2C[C@H](Cn2nc(C)nc2C)C1`, with “inactive”; and `COc1ccc(CN(C)C[C@H]2OCCCC[C@H](C)Oc3ccc(NC(=O)Nc4ccccc4)cc3C(=O)N([C@H](C)CO)C[C@H]2C)cc1`, with “inactive”.
To `C[C@H](O)C#Cc1ccc2c(c1)O[C@H](CN(C)C(=O)CN(C)C)[C@@H](C)CN([C@H](C)CO)S2(=O)=O` belongs “inactive”.
With `C[C@@H]1CN([C@H](C)CO)C(=O)c2cccc(NS(=O)(=O)c3cccs3)c2O[C@@H]1CN(C)S(=O)(=O)c1cccs1`, the growth inhibition call is “inactive”.
To `O=c1nc2[nH][nH]cc-2c(=O)[nH]1` belongs “inactive”; to `O=C(O)c1cc(N=Nc2ccc(S(=O)(=O)Nc3ccccn3)cc2)ccc1O`, “inactive”; to `O=C(C[C@H]1CC=CC[C@H](NC(=O)OCC2c3ccccc3-c3ccccc32)C(=O)OCCNC1=O)NCCO`, “inactive”.
To `C[C@H](CO)N1C[C@H](C)[C@@H](CN(C)Cc2ccc(C(F)(F)F)cc2)OCCCC[C@H](C)Oc2ccc(NC(=O)CCCN(C)C)cc2C1=O` belongs “inactive”; to `COC(=O)C1C(O)CCC2CN3CCc4c([nH]c5ccccc45)C3CC21` (stereo not given), “inactive”; to `COc1ccc(CN(C)C[C@@H]2OCCCC[C@@H](C)Oc3ccc(NC(=O)Cc4ccccc4)cc3C(=O)N([C@H](C)CO)C[C@H]2C)cc1`, “inactive”.
